# Laboratory results reported in the supplement of paper PMC12217912.
# Some of the results follow. Sequences were assembled here from the parent chain. Inactive controls read about 0.05.
# B1: TEV protease; numbered along this chain (parent)
# chain: MGESLFKGPRDYNPISSSICHLTNESDGHTTSLYGIGFGPFIITNKHLFRRNNGTLVVQSLHGVFKVKDTTTLQQHLVDGRDMIIIRMPKDFPPFPQKLKFREPQREERICLVTTNFQTKSMSSMVSDTSCTFPSGDGIFWKHWIQTKDGQCGSPLVSTRDGFIVGIHSASNFTNTNNYFTSVPKNFMELLTNQEAQQWVSGWRLNADSVLWGGHKVFMVKPEEPFQPVKEATQL
# Variants of: B1
# Assay: raw area under fraction-flipped curve 0-4 h after induction (AUC4h, not background-subtracted), DNA-recorder readout of cleavage of the substrate (dimensionless); higher = more cleavage of the substrate by the protease variant
# Conditions: temperature: 34 °C; time window: 0-4 h after rhamnose induction
# Experimental: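 In vivo DNA recorder in E. coli TOP10(DE3) ΔrhaA at 34 °C. Each TEVp single-site mutant (parent TEVp 0) is paired with a single-site variant of the 7-mer TEVs (canonical ENLYFQ|S). The substrate sits between flexible linkers in a Bxb1-sfGFP-TEVs-SsrA fusion, so cleavage stabilises Bxb1 and speeds flipping of a recombination array, read by NGS. The value is the raw area under the fraction-flipped curve over 0-4 h after rhamnose induction (AUC4h), with ≥20 reads per time point. It is not background-subtracted; inactive controls average about 0.047.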
# 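Note: Bxb1 expression induced with 0.2% (w/v) L-rhamnose at OD600 near 0.5, cultures sampled hourly, flipped fraction per protease–substrate barcode pair counted by paired-end Illumina sequencing.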
Variant,area with substrate ENLYFQA,area with substrate ENLYFQC,area with substrate ENLYFQD,area with substrate ENLYFQG,area with substrate ENLYFQH,area with substrate ENLYFQI,area with substrate ENLYFQK,area with substrate ENLYFQL,area with substrate ENLYFQM,area with substrate ENLYFQN,area with substrate ENLYFQP,area with substrate ENLYFQR,area with substrate ENLYFQS,area with substrate ENLYFQT,area with substrate ENLYFQV,area with substrate ENLYFQW,area with substrate ENLYFQY,area with substrate ENLYFQE,area with substrate ENLYFQF,area with substrate ENLYFQQ
T31E,0.0832,0.0974,0.0638,0.0783,0.0504,0.0599,0.0638,0.0661,0.0516,0.0616,0.0556,0.0597,0.0997,0.0739,0.0807,0.0566,0.0665,–,–,–
S32A,0.116,0.102,0.0625,0.0821,0.0702,0.0642,0.0565,0.0643,0.0671,0.0821,0.0824,0.0586,0.105,0.0653,0.059,0.0749,0.0626,0.0655,–,–
S32D,0.0839,0.0926,–,–,0.0712,–,0.0425,0.0605,0.0819,0.0765,–,0.0558,0.0865,0.0747,0.0844,0.0569,0.0279,0.0642,0.064,0.0677
S32E,0.094,0.0876,–,0.077,0.0854,0.0578,0.0569,0.0603,0.0952,0.075,0.0585,0.0611,0.0943,0.0627,0.0717,0.063,0.0692,–,–,0.0686
S32G,0.0973,0.106,–,0.102,0.0762,–,0.0601,0.0682,0.0848,0.083,–,0.0671,0.0954,0.0681,0.0608,0.063,0.0708,0.058,0.0783,–
S32L,0.0879,0.105,0.0664,0.0843,0.0677,0.0461,0.0579,0.0622,0.0635,0.0827,–,0.0702,0.0995,–,0.0516,0.0673,–,–,–,–
S32M,0.0943,0.108,–,–,–,0.0674,0.0618,0.068,–,–,–,0.0879,0.114,0.0596,0.0557,0.0786,0.101,–,–,–
S32P,0.0569,0.0732,0.0524,–,0.0528,–,0.0599,0.0498,0.0587,0.0535,0.0483,0.0461,0.0623,0.0506,0.0599,0.0573,0.053,–,0.0396,0.0405
S32Q,0.109,0.118,0.0632,0.106,0.0903,0.0597,0.0642,0.0698,0.0875,–,0.0595,–,0.1,0.07,0.0597,0.0674,0.0797,–,–,–
S32R,0.0823,0.116,0.0769,0.113,0.0644,0.0546,0.0591,–,0.0763,0.0813,–,0.032,0.101,0.057,–,0.0416,0.0738,0.0451,0.0796,0.0705
S32W,0.0995,0.128,0.0654,0.0987,–,0.0561,–,0.0652,0.101,0.0862,0.0496,0.0673,0.104,0.0716,–,–,0.0828,–,–,–
S32Y,0.0879,0.0982,0.0723,0.106,0.0812,–,0.0632,0.0542,0.094,0.0896,0.055,0.0494,0.0974,0.0576,–,0.056,–,0.0575,0.0714,–
L33N,0.106,0.0996,–,0.0916,0.0678,0.0719,0.0444,0.0565,0.0812,0.0722,0.0609,0.0691,0.104,0.0836,0.0652,0.0732,0.059,0.0747,0.0081,–
G39A,0.046,0.0542,0.0368,0.0572,–,0.0308,0.0506,0.0455,0.038,–,–,0.058,0.0492,0.0415,0.0369,0.0268,–,–,0.0303,0.0225
P40C,0.123,–,0.065,0.143,0.0826,0.0492,0.068,0.0546,0.0928,0.0796,–,0.0612,0.109,–,0.0735,0.0502,–,0.0679,–,0.0826
P40D,0.149,–,0.0584,0.086,0.0919,–,0.0567,–,0.081,0.0751,0.0729,0.0433,0.112,0.0781,–,0.075,0.0812,0.0874,0.0892,–
P40F,0.0567,0.102,0.065,0.0776,0.0718,0.0681,–,0.0473,0.106,0.0719,–,0.0552,0.0874,0.0658,–,0.0538,0.0636,–,0.0781,–
P40G,0.0985,0.136,–,0.0995,–,0.0603,0.0626,0.0718,0.0871,0.0868,0.0649,0.0598,0.113,0.064,0.0599,0.0884,0.0899,–,0.0965,–
P40H,0.111,0.0902,0.0992,–,0.0875,0.0656,0.0817,0.0607,0.0945,0.0761,0.0583,0.065,0.11,0.0669,–,0.0655,0.0715,–,–,0.0841
P40R,0.0993,0.134,–,–,–,–,0.0521,0.0635,0.0952,0.0794,0.0422,0.0632,0.108,0.037,0.0618,–,–,–,–,–
P40S,0.106,0.118,0.0826,0.113,0.077,0.0505,0.0628,0.0486,0.0861,0.0814,0.0611,0.0603,0.108,0.0638,0.0565,0.0638,–,–,0.0906,–
I43K,0.0564,0.0531,0.027,0.0542,–,0.062,0.0495,0.0394,0.0526,0.0387,0.0389,0.0457,0.048,0.06,–,0.0554,0.0536,–,0.0587,0.0449
I43R,0.047,0.0593,0.0458,0.109,0.0521,0.0384,0.0329,0.0423,–,0.0383,0.0416,0.0478,0.0471,–,0.0505,0.0393,0.0514,–,–,–
